According to patent US20100184636:

Molecular target: endogenous raptor (UniProt Q8N122)
Chain of UniProt Q8N122 (Q8N122 whole entry, looked up): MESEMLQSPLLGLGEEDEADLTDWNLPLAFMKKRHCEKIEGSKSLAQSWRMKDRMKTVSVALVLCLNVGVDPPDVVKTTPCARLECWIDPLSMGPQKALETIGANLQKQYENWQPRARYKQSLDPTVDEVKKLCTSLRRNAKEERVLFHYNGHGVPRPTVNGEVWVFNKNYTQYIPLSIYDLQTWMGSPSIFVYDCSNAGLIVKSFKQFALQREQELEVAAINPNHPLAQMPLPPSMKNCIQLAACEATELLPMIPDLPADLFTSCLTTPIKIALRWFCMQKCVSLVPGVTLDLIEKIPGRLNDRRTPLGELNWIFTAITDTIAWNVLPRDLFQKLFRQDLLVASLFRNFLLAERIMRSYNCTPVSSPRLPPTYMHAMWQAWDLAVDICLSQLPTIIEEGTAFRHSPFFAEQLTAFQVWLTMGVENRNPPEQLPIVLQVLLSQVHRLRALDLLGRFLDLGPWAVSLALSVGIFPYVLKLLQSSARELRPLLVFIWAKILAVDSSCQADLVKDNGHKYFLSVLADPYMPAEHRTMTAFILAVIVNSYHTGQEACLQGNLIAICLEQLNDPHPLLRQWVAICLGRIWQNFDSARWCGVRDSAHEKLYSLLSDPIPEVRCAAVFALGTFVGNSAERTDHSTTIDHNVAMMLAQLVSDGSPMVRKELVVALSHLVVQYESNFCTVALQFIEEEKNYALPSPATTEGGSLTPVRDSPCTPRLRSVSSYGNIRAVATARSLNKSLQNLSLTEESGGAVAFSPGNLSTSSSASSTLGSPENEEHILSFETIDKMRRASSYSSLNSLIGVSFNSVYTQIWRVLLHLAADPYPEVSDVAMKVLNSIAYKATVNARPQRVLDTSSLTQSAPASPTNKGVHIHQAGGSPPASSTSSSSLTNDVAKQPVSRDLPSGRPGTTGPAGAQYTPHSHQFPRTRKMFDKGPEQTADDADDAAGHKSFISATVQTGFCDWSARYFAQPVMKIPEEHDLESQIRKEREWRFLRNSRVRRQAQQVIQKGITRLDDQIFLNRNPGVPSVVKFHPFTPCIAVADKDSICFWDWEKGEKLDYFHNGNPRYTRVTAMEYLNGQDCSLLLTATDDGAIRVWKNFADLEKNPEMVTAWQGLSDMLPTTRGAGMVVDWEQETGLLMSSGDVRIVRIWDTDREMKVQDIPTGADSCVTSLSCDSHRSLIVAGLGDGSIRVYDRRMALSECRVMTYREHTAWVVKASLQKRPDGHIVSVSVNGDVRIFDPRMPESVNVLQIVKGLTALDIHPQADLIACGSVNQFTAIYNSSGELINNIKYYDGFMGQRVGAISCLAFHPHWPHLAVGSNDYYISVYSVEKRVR

PLD2^E266R (no sequence given)
S6K1 phosphorylation: PLD2^F265A and PLD2^E266R did not trigger S6K1 phosphorylation versus PLD2^wt
exogenous PA-dependent phosphorylation of S6K1 (add-back): the exogenous PA-dependent phosphorylation of S6K1 was rescued by PLD2^wt and PLD2^K758R, but not by PLD2^F265A and PLD2^E266R
mTOR kinase activity (in vitro kinase assay, phospho-4EBP1): PLD2^F265A and PLD2^E266R could not trigger mTOR kinase activity

PLD2^F265A (no sequence given)
S6K1 phosphorylation: PLD2^F265A and PLD2^E266R did not trigger S6K1 phosphorylation versus PLD2^wt
exogenous PA-dependent phosphorylation of S6K1 (add-back): the exogenous PA-dependent phosphorylation of S6K1 was rescued by PLD2^wt and PLD2^K758R, but not by PLD2^F265A and PLD2^E266R
mTOR kinase activity (in vitro kinase assay, phospho-4EBP1): PLD2^F265A and PLD2^E266R could not trigger mTOR kinase activity
